# Measurements as given in publication PMC6919601, “Identification of Plasmodium dipeptidyl aminopeptidase allosteric inhibitors by high throughput screening” (PLoS ONE, 2019).
# The campaign covered roughly 110,000 compounds. About 230 (0.21%) showed an effect of 50% or more. Some of the results follow.
# Biological target: DPAP1 (Plasmodium falciparum, UniProt Q8IIJ9)
# Experiment: primary screen, percent inhibition; read by cleavage of a fluorogenic dipeptide substrate; higher = more effect of the substance
# Design: species or system P. falciparum D10 trophozoite lysates; single well
# 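Also: 30 min substrate incubation versus DMSO and 10 µM JCP410 controls.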
# Chain of DPAP1 (Q8IIJ9 whole entry, looked up): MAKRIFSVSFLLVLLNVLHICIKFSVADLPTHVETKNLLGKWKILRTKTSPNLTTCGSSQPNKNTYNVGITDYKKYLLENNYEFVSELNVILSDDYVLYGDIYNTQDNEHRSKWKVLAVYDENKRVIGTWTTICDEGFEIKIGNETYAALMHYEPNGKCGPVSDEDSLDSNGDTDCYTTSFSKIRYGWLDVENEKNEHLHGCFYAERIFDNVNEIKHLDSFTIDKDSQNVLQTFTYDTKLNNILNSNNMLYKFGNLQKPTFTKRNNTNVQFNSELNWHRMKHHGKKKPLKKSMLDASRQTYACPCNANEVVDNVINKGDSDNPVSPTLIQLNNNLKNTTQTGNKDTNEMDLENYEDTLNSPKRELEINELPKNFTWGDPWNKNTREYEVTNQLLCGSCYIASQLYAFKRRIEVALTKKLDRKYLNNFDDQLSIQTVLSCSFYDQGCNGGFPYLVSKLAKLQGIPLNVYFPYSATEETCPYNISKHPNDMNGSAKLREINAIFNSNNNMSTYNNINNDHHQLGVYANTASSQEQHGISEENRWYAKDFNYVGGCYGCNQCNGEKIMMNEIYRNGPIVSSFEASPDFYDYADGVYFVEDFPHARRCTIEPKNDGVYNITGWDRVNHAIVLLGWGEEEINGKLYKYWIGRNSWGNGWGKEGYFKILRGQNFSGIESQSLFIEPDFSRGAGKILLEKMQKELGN
row,SMILES,% Inhibition @ 10 uM [%]
1,COc1ccccc1-c1cc(C(=O)Nc2cc(C)on2)no1,3.89
2,Cc1[nH]c2ccc(-c3nnc(SCC(=O)NCc4ccco4)n3Cc3ccccc3)cc2c1C,-3.21
3,CCOc1ccc(S(=O)(=O)N2CCCCC2)cc1-c1nc(O)c2c(n1)c(C(C)(C)C)nn2C,3.47
4,CC1(C)C2CCC1(C)C(NCc1ccccc1)C2 (stereo not shown),-3.46
5,CC(CCc1ccco1)NC(=O)Cn1ncc2c(=O)oc3ccccc3c21 (stereo not shown),-2.16
6,O=C(NCc1ccc(Cl)cc1)c1cc2nc(C(F)F)cc(C(F)F)n2n1,4.83
7,CCC(=O)c1cc(C(C)(C)C)c(O)c(C(C)(C)C)c1,-7.25
8,CC(=O)C1=C(C)NC(C)=C(C(C)=O)C1c1ccccc1C,-4.76
9,Cc1cc(-c2ccc(F)cc2)c(C#N)c(N)n1,-5.48
10,Cc1cccc(C(=O)N(Cc2ccco2)Cc2ccccc2Cl)c1,2.89
11,O=C(CCSc1nc2ccccc2o1)Nc1ccccc1Cl,0.408
12,CC1CCCN(S(=O)(=O)c2cccc(-c3cn4cccnc4n3)c2)C1 (stereo not shown),0.0539
13,O=C(O)c1ccccc1C(=O)N1CCSC1c1ccccc1 (stereo not shown),3.18
14,Cc1ccc(-c2cn3nc(N4CCCC(C(=O)NCCCN5CCOCC5)C4)sc3n2)cc1 (stereo not shown),-0.35
15,COc1cccc(C(=O)Nc2cccc(F)c2)c1,-9.68
16,CC1CCCCN1C(=O)c1cc2nc(-c3ccc(F)cc3)cc(C(F)(F)F)n2n1 (stereo not shown),-1.51
17,Cc1c(C)n(C)c2ccc(C(=O)NCC(C)c3ccccc3)cc12 (stereo not shown),-5.89
18,O=C(CN(c1ccc(F)cc1)S(=O)(=O)c1ccc2c(c1)OCCO2)Nc1ccc(F)cc1F,-3.65
19,O=C(Nc1ccccn1)c1cccc(S(=O)(=O)N2CC(c3ccccc3)CC2=O)c1 (stereo not shown),4.19
20,O=C(O)CNC(=O)/C=C\c1ccccc1,-6.4
21,Cn1nnc(NC(=O)CSc2nnnn2-c2ccc(F)cc2)n1,2.57
22,Cc1ccc(-c2c(C)s/c(=N\C(=O)c3ccco3)n2C)cc1,1.17
23,Cc1cc(Cl)ccc1OCC(=O)Nc1ccc(S(=O)(=O)N2CCCC2)cc1,-8.01
24,C=CCn1c(SC(C)CC)nc(O)cc1=O (stereo not shown),-4.91
25,NS(=O)(=O)c1ccc(CCNC(=O)CSc2nncn3c2cc2sccc23)cc1,1.97
26,COc1ccccc1OCc1ccc(C(=O)N2CCOCC2)o1,-4.65
27,Cc1cc(C)nc(SCCCn2c(N3CCC(C(N)=O)CC3)nc3c2c(=O)[nH]c(=O)n3C)n1,2.41
28,CC1=C(C(=O)OCC(C)C)C(c2ccccc2Cl)NC(=O)N1 (stereo not shown),5.92
